These results are taken from paper PMC4336329 (PLoS ONE, 2015).

Out of some 310,000 compounds screened, about 14,000 (4.5%) showed an effect of 50% or more. The effect is printed as a negative number. This is one part of the list.
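Note: peak tail current of the secondary pulse compared with the same well before compound.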

This test deals with human ether-à-go-go-related gene (hERG) potassium channel (human, UniProt Q12809). Nature of the test: primary screen, population patch clamp on CHO cells stably expressing hERG.
Chain of human ether-à-go-go-related gene (hERG) potassium channel (Q12809 whole entry, looked up): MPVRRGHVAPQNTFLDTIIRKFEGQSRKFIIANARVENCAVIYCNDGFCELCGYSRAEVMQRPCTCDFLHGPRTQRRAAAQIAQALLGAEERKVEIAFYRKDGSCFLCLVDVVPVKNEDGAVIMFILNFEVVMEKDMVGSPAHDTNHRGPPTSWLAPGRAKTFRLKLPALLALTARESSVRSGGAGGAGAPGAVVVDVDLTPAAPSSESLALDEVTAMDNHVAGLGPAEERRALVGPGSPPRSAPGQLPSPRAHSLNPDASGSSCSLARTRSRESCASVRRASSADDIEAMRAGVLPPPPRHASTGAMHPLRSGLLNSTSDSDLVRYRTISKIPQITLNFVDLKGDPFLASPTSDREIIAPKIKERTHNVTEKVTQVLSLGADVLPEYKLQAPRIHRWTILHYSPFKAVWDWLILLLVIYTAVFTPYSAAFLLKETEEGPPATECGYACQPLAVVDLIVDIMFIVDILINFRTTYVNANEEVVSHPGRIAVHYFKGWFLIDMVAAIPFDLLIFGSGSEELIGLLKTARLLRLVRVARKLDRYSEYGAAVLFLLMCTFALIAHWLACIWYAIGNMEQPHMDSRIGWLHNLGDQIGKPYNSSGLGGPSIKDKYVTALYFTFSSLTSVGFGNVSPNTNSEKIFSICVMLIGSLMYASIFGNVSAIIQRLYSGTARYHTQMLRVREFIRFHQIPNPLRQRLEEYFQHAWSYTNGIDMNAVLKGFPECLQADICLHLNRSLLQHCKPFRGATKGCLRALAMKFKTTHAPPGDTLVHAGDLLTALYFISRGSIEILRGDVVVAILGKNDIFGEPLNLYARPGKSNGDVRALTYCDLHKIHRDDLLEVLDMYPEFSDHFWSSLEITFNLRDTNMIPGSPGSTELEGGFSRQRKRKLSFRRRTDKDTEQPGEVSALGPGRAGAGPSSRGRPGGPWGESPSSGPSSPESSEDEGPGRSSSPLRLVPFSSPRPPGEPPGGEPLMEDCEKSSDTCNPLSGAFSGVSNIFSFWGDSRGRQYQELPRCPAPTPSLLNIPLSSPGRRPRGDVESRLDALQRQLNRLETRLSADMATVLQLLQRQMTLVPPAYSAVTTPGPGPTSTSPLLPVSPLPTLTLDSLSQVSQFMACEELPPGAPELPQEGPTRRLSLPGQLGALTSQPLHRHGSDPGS
In the case of `Cc1oc2ccc(Br)cc2c(=O)c1-c1nn[nH]n1`, the “hERG current change (%, negative = inhibition) at 10uM” value was determined as 3.71%. Consider `Cc1cccc(C)c1NC(=O)c1c[nH]c2ccccc12`, for which the “hERG current change (%, negative = inhibition) at 10uM” value was 6.37%.

As to `O=C1CC(N2CCN(c3ccc(F)cc3)CC2)C(=O)N1Cc1cccs1` (centres unmarked), the “hERG current change (%, negative = inhibition) at 10uM” value was -42.5%.

On to `COc1ccc(/C=C/c2nc(-c3ccccc3O)n(-c3ccccc3)n2)cc1`, for which the “hERG current change (%, negative = inhibition) at 10uM” value was -2.17%. As for `CC(=O)NCCC(=O)Nc1cc(F)ccc1C`, the “hERG current change (%, negative = inhibition) at 10uM” value is 2.94%. With `Cc1nnc(SCC(=O)NNC(=O)COc2ccc(Cl)cc2)n1C` the figure was 9.95%; with `Cc1noc(NC(=O)c2ccc(F)cc2)c1C#N`, 20.9%; with `CC(=O)N1CCOc2ccc(S(=O)(=O)N3CCC(C(=O)Nc4ccc(C)c(C)c4)CC3)cc21`, -6.48%.

With `CCOc1cc(C2c3c(oc4cc(C)c(Cl)cc4c3=O)C(=O)N2Cc2ccco2)ccc1O` (centres unmarked), the “hERG current change (%, negative = inhibition) at 10uM” value is recorded as 18.1%. With `O=C(Cn1cc2c(n1)CCCC2)NCc1cccs1` the figure was 2.94%; with `CC(C)c1cc(C(=O)Nc2cccnc2)no1`, -5.93%. With `O=[N+]([O-])c1ccc(N2CCCC(C(F)(F)F)C2)c2ccncc12` (centres unmarked) the figure was -24%; with `Cc1cc(-c2nnc(CCC(=O)NCc3cc(F)cc(C(F)(F)F)c3)o2)no1`, -1.8%; with `COc1cc(O)c2c(=O)c3c(OC)c(O)ccc3oc2c1`, 3.58%. With `CN(Cc1ccc(Cl)cc1)C(=O)CCl` the figure was 33.9%; with `COC(=O)c1sc(NC(=O)c2cccc([N+](=O)[O-])c2)c(C(N)=O)c1C`, -3.53%.

For the compound `C[n+]1c(-c2ccccc2)sc([S-])c1-c1ccccc1`, the “hERG current change (%, negative = inhibition) at 10uM” value is listed as -1.55%. With `COc1cccc(/C=C/C(=O)OCC(=O)NCC2CCCCC2)c1OC` the figure was 8.32%; with `C/C(=N\NC(=O)Cn1c(-c2ccccn2)nc2ccccc21)c1cccc(O)c1`, 22.7%.

With `Clc1ccc(-n2ncc3c(NCc4cccs4)ncnc32)cc1`, the “hERG current change (%, negative = inhibition) at 10uM” value is -1.42%.

As to `C#CCSc1nnc(-c2sc3ccccc3c2Cl)o1`, the “hERG current change (%, negative = inhibition) at 10uM” value stood at 13.1%. With `Cc1ccc(OCc2nc(-c3ccccc3)no2)cc1` the figure was 13.3%.

With `CN(C)S(=O)(=O)c1cccc(COC(=O)c2ccc3c(c2)OCO3)c1`, the “hERG current change (%, negative = inhibition) at 10uM” value was determined as 4.97%. For the compound `O=C(CNC(=O)c1cccs1)NC1=NCCS1`, the “hERG current change (%, negative = inhibition) at 10uM” value is 4.08%. Turning to `Cc1cc(C(=O)NCc2cccs2)c(C)o1`, the “hERG current change (%, negative = inhibition) at 10uM” value was -4.28%. For `O=C(NCc1ccco1)c1cccn2c(=O)c3c4c(sc3nc12)CCCC4`, the “hERG current change (%, negative = inhibition) at 10uM” value turned out to be 13.6%. For `COc1ccc(OC)c(Nc2nc(-c3sc(N)nc3C)cs2)c1` the value was -0.856%; for `Cc1ccc(C)c(NC(=O)CN(C)C(=O)[C@@H](NC(=O)c2ccc(C(C)(C)C)cc2)C(C)C)c1`, -16.5%. With `CCC(C)C(NC(=O)C1CCC(=O)N1C(=O)OCc1ccccc1)C(=O)NC(Cc1ccccc1)C(N)=O` (centres unmarked) the figure was -18.2%. For the compound `CC(=O)C1(C)OC(N)=C(C#N)C(c2ccccc2)C1(C#N)C#N` (centres unmarked), the “hERG current change (%, negative = inhibition) at 10uM” value was -0.619%. Consider `CN(c1ccccc1)S(=O)(=O)c1ccc(C(=O)Nc2nccs2)cc1`, for which the “hERG current change (%, negative = inhibition) at 10uM” value was 9.93%.

For `CC(C)C(OC(=O)c1cccs1)C(=O)NCc1cccs1` (centres unmarked), the “hERG current change (%, negative = inhibition) at 10uM” value worked out at 3.25%.

For `NC(=O)C1(C(N)=O)OC1c1ccc(Cl)cc1Cl` (centres unmarked), the “hERG current change (%, negative = inhibition) at 10uM” value came out at 9.23%.

Turning to `Cc1ccc(C)c(NC(=O)CSc2nnc(-c3ccccc3)n2N)c1`, the “hERG current change (%, negative = inhibition) at 10uM” value is on record as -6.88%. Consider `Cc1ccc(CS(=O)Cc2ccc(C(=O)NCc3cccs3)o2)cc1` (centres unmarked), for which the “hERG current change (%, negative = inhibition) at 10uM” value is reported as 1.68%. For `O=C(NCCc1ccc(F)cc1)Nc1ccc2c(c1)OCO2` the value was 9.4%; for `Cc1ccc(C2CC(C(F)(F)F)n3ncc(C(N)=O)c3N2)cc1` (centres unmarked), -0.858%. For `Cc1ccc(OCC(=O)Nc2ccc(CN3CCOCC3)cc2)cc1` the value was -9.4%; for `CCCn1nc(C(=O)Nc2ccc(N3CCOCC3)cc2)c2ccccc2c1=O`, -17.6%. For `Cc1ccc(COc2ccc(/C=N/NC(=O)c3nnn(-c4nonc4N)c3COc3ccc(F)cc3)cc2)cc1` the value was 6.65%. As to `CCn1cc(CN(C)S(=O)(=O)c2ccc3ccccc3c2)c(C)n1`, the “hERG current change (%, negative = inhibition) at 10uM” value was -1.17%. As for `CC1CC(C)CN(c2ccc([N+](=O)[O-])nc2)C1` (centres unmarked), the “hERG current change (%, negative = inhibition) at 10uM” value came to 19%.

Take `CCc1cc[n+](/C(C(=S)Nc2cccc(C)c2)=C(/[O-])c2ccc(C)c([N+](=O)[O-])c2)cc1`: the “hERG current change (%, negative = inhibition) at 10uM” value is reported as -24.5%.

On to `Cc1ccc(NC(=O)COc2cccc(/C=C3\SC(=S)N(CCC(=O)O)C3=O)c2)cc1Cl`, for which the “hERG current change (%, negative = inhibition) at 10uM” value turned out to be 3.99%.
